Paper PMC11995724, “Antibiotic target discovery by integrated phenotypic and activity-based profiling of electrophilic fragments” (Cell chemical biology, 2025)
Screen size: about 3,200 compounds; about 110 (3.4%) showed an effect of 50% or more. This is one part of the list.

System: T1, V. cholerae SAD30
T1 construct: SAD30
Parameters: species or system S. aureus MSSA476 (TSB) or V. cholerae SAD30 (LB); 384-well bacterial growth screen at 25 uM, OD600 relative to DMSO control
Conditions: relative growth, OD600, LB; 25 µM; inhibitor

Compound	% of control remaining [%]
CC(Cl)C(=O)Nc1cccc([N+](=O)[O-])c1 (centres unmarked) [6-E08, 2-chloro-N-(3-nitrophenyl)propanamide]	88.7288
COc1ccc(OC)c(N2C(=O)C=CC2=O)c1 [10-N15, 1-(2,5-dimethoxyphenyl)-2,5-dihydro-1H-pyrrole-2,5-dione]	24.7808
Cc1noc(C)c1CN(C(=O)CCl)C1CC1 [7-B05, 2-chloro-N-cyclopropyl-N-[(3,5-dimethyl-1,2-oxazol-4-yl)methyl]acetamide]	89.4763
O=C(CCl)Nc1ccc(-c2ccccc2)cc1 [4-N10, N-{[1,1'-biphenyl]-4-yl}-2-chloroacetamide]	110.244
CC(Cl)C(=O)Nc1cc(Cl)c(Cl)cc1Cl (centres unmarked) [4-N13, 2-chloro-N-(2,4,5-trichlorophenyl)propanamide]	94.8889
CCOC(=O)c1[nH]c(C)c(C(=O)CCl)c1C [10-A10, ethyl 4-(2-chloroacetyl)-3,5-dimethyl-1H-pyrrole-2-carboxylate]	100.058
O=C(CCl)Nc1ccc(S(=O)(=O)N2CCCCC2)cc1 [4-H06, 2-chloro-N-[4-(piperidine-1-sulfonyl)phenyl]acetamide]	105.758
N#CC(=Cc1ccc(-c2ccccc2Cl)o1)C(=O)N1CCCCC1 [8-F20, 3-[5-(2-chlorophenyl)furan-2-yl]-2-(piperidine-1-carbonyl)prop-2-enenitrile]	64.378
C=CC(=O)N1CCCC2(CCCCO2)C1 (centres unmarked) [3-O09, 1-{1-oxa-8-azaspiro[5.5]undecan-8-yl}prop-2-en-1-one]	103.029
O=[N+]([O-])c1ccccc1S(=O)(=O)N1CCSSCC1 [10-N09, 5-(2-nitrobenzenesulfonyl)-1,2,5-dithiazepane]	91.7982
C=CC(=O)N1CCC(c2nc(C3CCC3)no2)CC1 [2-O04, 1-[4-(3-cyclobutyl-1,2,4-oxadiazol-5-yl)piperidin-1-yl]prop-2-en-1-one]	93.2838
C=CC(=O)NCCC(=O)N1CCSC(C)(C)C1 [3-G18, N-[3-(2,2-dimethylthiomorpholin-4-yl)-3-oxopropyl]prop-2-enamide]	90.3253
C=CC(=O)N1CCCC(CNC(C)=O)C1 (centres unmarked) [3-E15, N-{[1-(prop-2-enoyl)piperidin-3-yl]methyl}acetamide]	93.8541
C=CC(=O)Nc1ccc(-c2nc3cc(C)ccc3o2)cc1 [1-D20, N-[4-(5-methyl-1,3-benzoxazol-2-yl)phenyl]prop-2-enamide]	92.738
C=CC(=O)NCc1nc2cc(F)ccc2o1 [3-N20, N-[(5-fluoro-1,3-benzoxazol-2-yl)methyl]prop-2-enamide]	99.853
O=C(CCl)Nc1ccccc1Cc1ccccc1 [4-N22, N-(2-benzylphenyl)-2-chloroacetamide]	109.726
N#CC(=Cc1ccc(O)cc1)C(=O)Nc1ccc(Cl)cc1Cl [9-G22, 2-cyano-N-(2,4-dichlorophenyl)-3-(4-hydroxyphenyl)prop-2-enamide]	96.0571
CC(Cl)C(=O)N(Cc1ccsc1)C1CC1 (centres unmarked) [7-G11, 2-chloro-N-cyclopropyl-N-[(thiophen-3-yl)methyl]propanamide]	77.7135
C=CC(=O)N(C)Cc1nc2c(cnn2C)c(=O)[nH]1 [3-L08, N-methyl-N-({1-methyl-4-oxo-1H,4H,5H-pyrazolo[3,4-d]pyrimidin-6-yl}methyl)prop-2-enamide]	93.8541
C=CC(=O)Nc1cnc2cc(C)nn2c1 [2-M13, N-{2-methylpyrazolo[1,5-a]pyrimidin-6-yl}prop-2-enamide]	94.0558
C=CC(=O)N(C)CC(=O)N1CCN(c2ccccc2[N+](=O)[O-])CC1 [2-L04, N-methyl-N-{2-[4-(2-nitrophenyl)piperazin-1-yl]-2-oxoethyl}prop-2-enamide]	93.1294
CC(C)c1noc2ncc(C(=O)N3CCSSCC3)cc12 [10-F21, 5-[3-(propan-2-yl)-[1,2]oxazolo[5,4-b]pyridine-5-carbonyl]-1,2,5-dithiazepane]	100.682
CC(Cl)C(=O)NCC1CCN(C)c2ccccc21 (centres unmarked) [7-J11, 2-chloro-N-[(1-methyl-1,2,3,4-tetrahydroquinolin-4-yl)methyl]propanamide]	72.6912
O=C(CN(CC1CCCO1)C(=O)CCl)N1CCCC1 (centres unmarked) [7-D18, 2-chloro-N-[2-oxo-2-(pyrrolidin-1-yl)ethyl]-N-[(oxolan-2-yl)methyl]acetamide]	74.4094

Compound	% of control remaining [%]
Cn1ccnc1C(NC(=O)CCl)c1ccccc1 (centres unmarked) [4-H20, 2-chloro-N-[(1-methyl-1H-imidazol-2-yl)(phenyl)methyl]acetamide]	107.138
COc1cc(C=C(C#N)C(=O)Nc2c(C)cc(C)cc2C)cc(OC)c1 [8-A18, 2-cyano-3-(3,5-dimethoxyphenyl)-N-(2,4,6-trimethylphenyl)prop-2-enamide]	89.8029
Cl.NC(=O)c1ccccc1N1CCC(NC(=O)CCl)CC1 [7-P14, 2-[4-(2-chloroacetamido)piperidin-1-yl]benzamide hydrochloride]	88.9476
C=CC(=O)NCc1ncoc1C(F)(F)F [3-E18, N-{[5-(trifluoromethyl)-1,3-oxazol-4-yl]methyl}prop-2-enamide]	92.2661
Cc1ccc(NC(=O)C(C#N)=Cc2ccccc2OC(F)F)c(C)c1 [9-K17, 2-cyano-3-[2-(difluoromethoxy)phenyl]-N-(2,4-dimethylphenyl)prop-2-enamide]	90.6186
Cc1ccc(NC(=O)C2CSCN2C(=O)CCl)c(C)c1 (centres unmarked) [5-M07, 3-(2-chloroacetyl)-N-(2,4-dimethylphenyl)-1,3-thiazolidine-4-carboxamide]	94.1473
O=C(CCl)NC1CCC(c2nc(-c3ccccc3)n[nH]2)CC1 (centres unmarked) [6-G19, 2-chloro-N-[4-(3-phenyl-1H-1,2,4-triazol-5-yl)cyclohexyl]acetamide]	92.9756
CC(Cl)C(=O)N(c1cccc(C#N)c1)C1CCC1 (centres unmarked) [6-N22, 2-chloro-N-(3-cyanophenyl)-N-cyclobutylpropanamide]	93.8857
O=C(CCl)NCc1ccc(C(=O)N2CCOCC2)cc1 [5-L14, 2-chloro-N-{[4-(morpholine-4-carbonyl)phenyl]methyl}acetamide]	97.846
C=CC(=O)N1CCC(C(=O)NCC(O)c2c(F)cccc2F)CC1 (centres unmarked) [2-P14, N-[2-(2,6-difluorophenyl)-2-hydroxyethyl]-1-(prop-2-enoyl)piperidine-4-carboxamide]	88.4975
CC(Cl)C(=O)N1CCC(Cc2ccccc2)CC1 (centres unmarked) [5-K21, 1-(4-benzylpiperidin-1-yl)-2-chloropropan-1-one]	81.5383
CC(Cl)C(=O)N(C)c1ccccc1 (centres unmarked) [5-D06, 2-chloro-N-methyl-N-phenylpropanamide]	94.6517
CC(C)NC(=O)C(C#N)=Cc1ccc(C(C)C)cc1 [9-I11, 2-cyano-N-(propan-2-yl)-3-[4-(propan-2-yl)phenyl]prop-2-enamide]	84.5003
Cc1cc(C(=O)CCl)c(F)cc1F [10-O03, 2-chloro-1-(2,4-difluoro-5-methylphenyl)ethan-1-one]	34.9114
C=CC(=O)NC(Cc1nc(C)no1)c1ccccc1 (centres unmarked) [1-B22, N-[2-(3-methyl-1,2,4-oxadiazol-5-yl)-1-phenylethyl]prop-2-enamide]	133.464
C=CC(=O)N1CCC(C(=O)Nc2cccc(N3CCCC3=O)c2)CC1 [2-H04, N-[3-(2-oxopyrrolidin-1-yl)phenyl]-1-(prop-2-enoyl)piperidine-4-carboxamide]	96.5261
Cc1ccc(Oc2ccc(NC(=O)CCl)cc2)cc1 [4-K03, 2-chloro-N-[4-(4-methylphenoxy)phenyl]acetamide]	93.1637
N#CC(=Cc1ccncc1)C(=O)Nc1cccc(Cl)c1 [8-B19, N-(3-chlorophenyl)-2-cyano-3-(pyridin-4-yl)prop-2-enamide]	77.5663
C=CC(=O)N1CCC(C(=O)NCc2ccccc2)CC1 [1-I05, N-benzyl-1-(prop-2-enoyl)piperidine-4-carboxamide]	92.5262
COc1ccc(N2C(=O)C=CC2=O)c([N+](=O)[O-])c1 [10-L11, 1-(4-methoxy-2-nitrophenyl)-2,5-dihydro-1H-pyrrole-2,5-dione]	30.3916
CC(Cl)C(=O)N(C)Cc1cc(Cl)cn1C (centres unmarked) [6-P21, 2-chloro-N-[(4-chloro-1-methyl-1H-pyrrol-2-yl)methyl]-N-methylpropanamide]	102.531
CC(C)c1ccccc1NC(=O)CCl [4-F06, 2-chloro-N-[2-(propan-2-yl)phenyl]acetamide]	100.582
N#CC(=Cc1cccc(Oc2ccccc2)c1)C(=O)NC(N)=O [8-D07, {2-cyano-2-[(3-phenoxyphenyl)methylidene]acetyl}urea]	81.1013
